Values joined by “and” are separate entries in the source; they are usually repeats but may differ in a detail not shown here. Equal values may be shown once. Hit rate of the full screen: of about 280,000 compounds, about 820 (0.29%) were called active. Inconclusive means that the source gave no clear call. Such entries were picked first, then a sample of the others. Calls follow the shape of the dose curve; as a rule, active = well fitted curve in either direction with a large enough effect; inconclusive = small, poorly fitted or top-dose-only effect; inactive = flat fitted curve, though single readings scatter. No potency is given beside an inconclusive call; the fits are too rough.
assay: Total Fluorescence Counterscreen for Inhibitors of the Interaction of Thyroid Hormone Receptor and Steroid Receptor Coregulator 2; conditions: TRb/SRC2 Texas Red total fluorescence interference; series mostly up to 106 µM
How it was run: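 Human TRβ ligand-binding domain (0.6 uM) and Texas Red SRC2 peptide (20 nM) in Tris buffer with 1 uM T3 and 5% DMSO were incubated with pinned compound for 5 hr at ambient temperature. Total fluorescence was computed as S + 2P (555/632 nm).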
% is scaled to controls: 0 for no effect and ±100 for the full control effect; potency is read from the fitted curve at half-maximal effect; tags tell the direction and shape of the fitted curve or compound fluorescence and quenching.

Compound	Potency	fluorescence change, negative = quenching
Cc1cc2c(cc1[N+](=O)[O-])NC(CNC(C)C)CC2 (stereo unspecified)	inactive	–
COc1ccc2c(c1)CCc1c(C(=O)Nc3c(C)nn(Cc4c(Cl)cccc4Cl)c3C)noc1-2	active: 0.0794 µM [quencher]	–
CN1/C(=C\C=C2\N=C(c3ccc(F)cc3)OC2=O)C(C)(C)c2ccccc21	inconclusive [fluorescent, partial curve]	–
CN(C)c1ccc(C=Nc2ccc(N(C)C)cc2)cc1	inconclusive [fluorescent, partial curve]	–
O=C(Oc1cccc(/C=N/Nc2nc(Nc3ccccc3)nc(N3CCOCC3)n2)c1)c1ccco1	inactive	–
N#Cc1c(Nc2ccc(Cl)cc2)s[nH]c1=O	inactive	–
Cc1cc(C)cc(C(=O)n2nc(C)c(S(=O)(=O)N3CCCCCC3)c2C)c1	inconclusive [quencher, partial curve]	–
C/C(Cc1ccccc1)=N/NC(=O)CNC(=O)C(c1ccccc1)c1ccccc1	inactive	–
Cc1c(CCO)c(=O)n(-c2ccccc2)n1S(=O)(=O)c1c(Cl)cc(Cl)cc1Cl	inactive	–
CCCCC1=CC2=C(OC(C)=O)C(=O)C(C)(OC(=O)c3ccc(Cl)nc3)C(=O)C2=CO1 (stereo unspecified)	inactive	–
O=C(NCCc1nc2ccccc2n1Cc1c(F)cccc1Cl)c1ccco1	inconclusive [falling, partial curve, poor fit]	–
CCCN1C(=O)/C(=C\C=C2/Sc3ccccc3N2CC)SC1=S	inconclusive [rising, single point]	–
COc1ccc(N2CCN(C(=O)C3CCN(S(=O)(=O)c4cccc5nonc45)CC3)CC2)cc1	inconclusive [falling, partial curve, poor fit]	–
O=C(CSc1nnc(-c2ccc(F)cc2)c2ccccc12)Nc1ccccc1Cl	inconclusive [falling, partial curve, poor fit]	–
O=C(Cc1ccc([N+](=O)[O-])cc1)N1CCN=C1SCc1ccccc1	inconclusive [falling, partial curve, poor fit]	–
Cc1ccccc1-c1ccnc2[nH]n(-c3ccccc3)c(=O)c12	inactive	–
CN(C)CCNC(=O)C1CCN(c2ncnc3c2nc2n3CCCCC2)CC1	active: 25.1 µM [quencher]	–
Cc1ccc(C2CC(=O)N3CN(c4ccc(Br)cc4)CSC3=C2C#N)o1 (stereo unspecified)	inactive	–
CN1CCN(S(=O)(=O)c2ccc(NC(=S)NC(=O)C3CCCCC3)cc2)CC1	inactive	–
O=C(N/N=C/c1ccc(-c2ccc([N+](=O)[O-])cc2)o1)c1cccnc1	inactive	–
CN(c1ccc(OCC(=O)OCC(=O)Nc2ccccc2)cc1)S(=O)(=O)c1cccs1	active: 5.01 µM [quencher]	–
CN(Cc1ccccc1)C(=C(Cl)Cl)/C(=C1/NCCN1C)[N+](=O)[O-]	inactive	–
O=C(CSc1ccc(-c2ccccn2)nn1)c1ccccc1	inactive	–

Compound	Potency	fluorescence change, negative = quenching
CCCN1C(=O)SC(CC(=O)Nc2ccccc2)C1=O (stereo unspecified)	inactive	–
Cc1ccc(NC(=O)/C(C#N)=C/c2ccccc2Cl)cc1C	inconclusive [quencher, full curve]	–
CN1CC(O)C2=CC(=O)C(=O)C=C21 (stereo unspecified)	inconclusive [quencher, partial curve]	–
O=C1C[C@@H](O)[C@@H](O)[C@H]2[C@@H]3C(=O)N(Cc4ccccc4)C(=O)[C@@H]3CC[C@H]12	–	inactive: -1.35% [at 11.2 µM] and inactive: 0.0119% [at 11.2 µM]
COC(=O)CCC(=O)OC1(C)C(=O)C=C2C=C(C3CC3)N(C3CCCCC3)C=C2C1=O (stereo unspecified)	inactive	–
CCOc1ccc(NC(=O)N2CCC(CN3CCC(C)CC3)CC2)cc1	active: 100 µM [quencher]	–
COc1ccccc1NC(=O)CN1C(=O)CCS(=O)(=O)c2ccccc21	inactive	–
O=c1[nH]cnc2nc(-c3ccccc3)c(-c3ccccc3)nc12	inactive	–
Cc1cc(Cl)ccc1NC(=S)Nc1ccccn1	inconclusive [falling, full curve, poor fit]	–
CCOc1ccccc1CNC(=O)c1nc(-c2ccc(Cl)cc2)n2c1CCCCC2	inconclusive [quencher, full curve]	–
CCOC(=O)C1=C(O)C(=O)N(CCCn2ccnc2)C1c1ccc(OC)cc1 (stereo unspecified)	inactive	–
CC1CC(C)CN(CC(O)COCCOc2ccc(Br)cc2)C1 (stereo unspecified)	inactive	–
O=C1COc2ccc(-c3cc(-c4ccc(Cl)cc4)c4c(n3)-c3ccccc3OC4)cc2N1	active: 10 µM [quencher]	–
CC(C)C(=O)N1c2nc(-c3ccco3)nn2C2(CCCCC2)[C@@H]2CCCC[C@@H]21	inconclusive [falling, full curve, poor fit]	–
Cc1cc(C(F)F)n2nc(C(=O)Nc3ccc(C(C)C)cc3)nc2n1	inactive	–
O=C(NCc1ccco1)c1cc(-c2cccs2)nc2ccccc12	inconclusive [falling, full curve, poor fit]	–
COC(=O)c1c(Oc2ccc(OC)cc2)nnc(-c2ccccc2)c1-c1ccccc1	active: 794 µM [quencher]	–
CC[C@@H]1/C=C(\C)C[C@H](C)C[C@H](OC)[C@H]2O[C@@](O)(C(=O)C(=O)N3CCCC[C@H]3C(=O)O[C@H](/C(C)=C/[C@@H]3CC[C@@H](O)[C@H](OC)C3)[C@H](C)[C@@H](O)CC1=O)[C@H](C)C[C@@H]2OC	inconclusive [falling, full curve, poor fit]	–
Cc1ccc(-n2c(C)cc(C(=O)CSc3nncs3)c2C)cc1	inactive	–
CCn1c(=O)c2cc(C(=O)NCCCOC)sc2c2ccccc21	inconclusive [falling, full curve, poor fit]	–
Cc1cc(C)n(-c2nc3ccccc3nc2Nc2ccc(Cl)cc2Cl)n1	inconclusive [falling, full curve, poor fit]	–
Cc1ccc(C)c(NC(=O)N2CCC(CN3CCOCC3)CC2)c1	inconclusive [falling, partial curve, poor fit]	–
Cc1cc(NC(=O)COCc2cc(-c3ccc(F)cc3)on2)ccc1Br	inconclusive [quencher, full curve]	–
